In the supplement of paper PMC4604168 (melanoma cell lines):
This is one part of the list. Most values come without repeats; read them as rough.

test system: UACC62; assay: cell count relative to DMSO control; melanoma cells; higher = more viable cells; details: library dose: low library concentration; 72 h
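Also: cell number obtained by counting DAPI-stained nuclei in high-throughput microscope images with image analysis software, screen run in 1,536-well plates.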

Row | SMILES | cell count [%]
1 | CO[C@H]1C[C@@H]2CC[C@@H](C)[C@@](O)(O2)C(=O)C(=O)N2CCCC[C@H]2C(=O)O[C@H]([C@H](C)C[C@@H]2CC[C@@H](OCCO)[C@H](OC)C2)CC(=O)[C@H](C)/C=C(\C)[C@@H](O)[C@@H](OC)C(=O)[C@H](C)C[C@H](C)/C=C/C=C/C=C/1C [everolimus] + CN(C)S(=O)(=O)c1ccc2c(c1)/C(=C/c1cc3c([nH]1)CCCC3)C(=O)N2 [SU6656] (first compound 0.02 µM, partner dose 0.4 µM) | 66.1
2 | CO[C@H]1C[C@@H]2CC[C@@H](C)[C@@](O)(O2)C(=O)C(=O)N2CCCC[C@H]2C(=O)O[C@H]([C@H](C)C[C@@H]2CC[C@@H](OCCO)[C@H](OC)C2)CC(=O)[C@H](C)/C=C(\C)[C@@H](O)[C@@H](OC)C(=O)[C@H](C)C[C@H](C)/C=C/C=C/C=C/1C [everolimus] + Nc1nc(F)nc2c1ncn2[C@@H]1O[C@H](CO)[C@@H](O)[C@@H]1O [fludarabine] (first compound 0.02 µM, partner dose 0.2 µM) | 57.4
3 | CO[C@H]1C[C@@H]2CC[C@@H](C)[C@@](O)(O2)C(=O)C(=O)N2CCCC[C@H]2C(=O)O[C@H]([C@H](C)C[C@@H]2CC[C@@H](OCCO)[C@H](OC)C2)CC(=O)[C@H](C)/C=C(\C)[C@@H](O)[C@@H](OC)C(=O)[C@H](C)C[C@H](C)/C=C/C=C/C=C/1C [everolimus] + CC(=O)c1c(C)c2cnc(Nc3ccc(N4CCNCC4)cn3)nc2n(C2CCCC2)c1=O [palbociclib] (first compound 0.02 µM, partner dose 0.04 µM) | 47.4
4 | CC(=O)O[C@@]12CO[C@@H]1C[C@H](O)[C@@]1(C)C(=O)[C@H](O)C3=C(C)[C@@H](OC(=O)[C@H](O)[C@@H](NC(=O)OC(C)(C)C)c4ccccc4)C[C@@](O)([C@@H](OC(=O)c4ccccc4)[C@H]21)C3(C)C [Docetaxel] + CC(C)C[C@H](NC(=O)[C@H](Cc1ccccc1)NC(=O)c1cnccn1)B(O)O [Bortezomib] (first compound 0.0001 µM, partner dose 0.001 µM) | 40.3
5 | CO[C@H]1C[C@@H]2CC[C@@H](C)[C@@](O)(O2)C(=O)C(=O)N2CCCC[C@H]2C(=O)O[C@H]([C@H](C)C[C@@H]2CC[C@@H](OCCO)[C@H](OC)C2)CC(=O)[C@H](C)/C=C(\C)[C@@H](O)[C@@H](OC)C(=O)[C@H](C)C[C@H](C)/C=C/C=C/C=C/1C [everolimus] + Nc1ncn([C@H]2C[C@H](O)[C@@H](CO)O2)c(=O)n1 [decitabine] (first compound 0.02 µM, partner dose 0.1 µM) | 64.7
6 | CC(=O)O[C@@]12CO[C@@H]1C[C@H](O)[C@@]1(C)C(=O)[C@H](O)C3=C(C)[C@@H](OC(=O)[C@H](O)[C@@H](NC(=O)OC(C)(C)C)c4ccccc4)C[C@@](O)([C@@H](OC(=O)c4ccccc4)[C@H]21)C3(C)C [Docetaxel] + O=C(O)c1ccc2c(c1)nc(Nc1cccc(Cl)c1)c1ccncc12 [CX4945] (first compound 0.0001 µM, partner dose 0.4 µM) | 39.4
7 | Nc1ccn([C@@H]2O[C@H](CO)[C@@H](O)C2(F)F)c(=O)n1 [gemcitabine] + Cn1cc(/C=C2\C(=O)Nc3cccnc32)c2ccccc21 [GW441756] (first compound 0.0004 µM, partner dose 0.4 µM) | 94.4
8 | CO[C@H]1C[C@@H]2CC[C@@H](C)[C@@](O)(O2)C(=O)C(=O)N2CCCC[C@H]2C(=O)O[C@H]([C@H](C)C[C@@H]2CC[C@@H](OCCO)[C@H](OC)C2)CC(=O)[C@H](C)/C=C(\C)[C@@H](O)[C@@H](OC)C(=O)[C@H](C)C[C@H](C)/C=C/C=C/C=C/1C [everolimus] + OCCn1cc(-c2cnc3nnn(Cc4ccc5ncccc5c4)c3n2)cn1 [PF04217903] (first compound 0.02 µM, partner dose 1 µM) | 68.4
9 | CC(=O)O[C@@]12CO[C@@H]1C[C@H](O)[C@@]1(C)C(=O)[C@H](O)C3=C(C)[C@@H](OC(=O)[C@H](O)[C@@H](NC(=O)OC(C)(C)C)c4ccccc4)C[C@@](O)([C@@H](OC(=O)c4ccccc4)[C@H]21)C3(C)C [Docetaxel] + Cc1cc([N+](=O)[O-])ccc1NS(=O)(=O)c1cc(Cl)ccc1Cl [FH535] (first compound 0.0001 µM, partner dose 1 µM) | 42
